What was measured:
[1] = target: T1, R195Q ecMenE (Escherichia coli, UniProt P37353, R195Q); details: substrate OSB
Procedure: (§1) Enzyme inhibition studies were performed using the MenE-MenB coupled reaction in which the MenE reaction is rate limiting (also described in Reference 1 and 2 which are incorporated herein by reference). Reaction mixtures contained OSB (60 μM), ATP (240 μM), CoA (240 μM), MtMenB (2.5 μM) and varying inhibitor concentrations (5-250 μM). Reactions were initiated by the addition of MenE (25 nM) and the production of DHNA-CoA was monitored at 392 nm (ε392 4000 M^−1 cm). Measurements were performed in triplicate for each compound.
(§2) Analysis of the catalytic efficiency (kcat/KM) of the mutant enzymes compared to wild type MenE was performed using the MenE-MenB coupled assay described above.

[2] = target: T2, R195K ecMenE (Escherichia coli, UniProt P37353, R195K)
Procedure: as §1, §2

[3] = target: T1, R195Q ecMenE
Procedure: (§3) To investigate the role of the conserved Arg in enzyme inhibition, the binding of OSB-AMS to ecMenE mutants by isothermal titration calorimetry (ITC). The direct binding of inhibitors to MenE was quantified using isothermal titration calorimetry (ITC). Measurements were made with a MicroCal VP-ITC instrument at 25° C. Inhibitor stock solutions (1 mM in NaHPO4 buffer pH 7.4 containing 150 mM NaCl and 1 mM MgCl2) were titrated in 4 μL increments into a 50 μM solution of MenE in pH 7.4 20 mM sodium phosphate buffer containing 150 mM sodium chloride and 1 mM magnesium chloride. The data were fit to a single binding site model with the Origin software package. […] The change in binding free energy (ΔΔG) is consistent with the removal of one (R195K) or two (R195Q) hydrogen bonds to the ligand consistent with the modeled structure in which the R195 guanadinium group makes two interactions with the OSB carboxylate, and thus also presumably with the carboxylate of OSB-AMS.

[4] = target: T2, R195K ecMenE; remark: listed apart in the source
Procedure: as §3

[5] = change in binding free energy versus wild-type

T2 sequence (P37353 whole entry R195K): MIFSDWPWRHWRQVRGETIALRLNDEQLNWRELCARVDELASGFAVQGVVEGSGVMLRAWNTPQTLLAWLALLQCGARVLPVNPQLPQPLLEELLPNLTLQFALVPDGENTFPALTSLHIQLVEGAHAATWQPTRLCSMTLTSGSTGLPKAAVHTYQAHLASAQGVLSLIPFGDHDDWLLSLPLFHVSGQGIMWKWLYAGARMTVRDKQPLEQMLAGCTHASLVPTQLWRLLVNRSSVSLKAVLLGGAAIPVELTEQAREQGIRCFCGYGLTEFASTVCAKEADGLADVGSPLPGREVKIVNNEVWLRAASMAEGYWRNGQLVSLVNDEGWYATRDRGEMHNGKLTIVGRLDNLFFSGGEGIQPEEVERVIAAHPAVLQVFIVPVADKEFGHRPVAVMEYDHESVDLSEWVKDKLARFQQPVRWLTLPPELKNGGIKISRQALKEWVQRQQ
T1 sequence (P37353 whole entry R195Q): as the sequence (P37353 whole entry R195K) above, with K195Q counted along it

| SMILES | catalytic parameters (KM, kcat, kcat/KM) [1] | Km ([2]; read-out: KM OSB, substrate OSB) | kcat ([2]; substrate OSB) | Kd [3] | ΔG ([3]; ITC, 25° C., pH 7.4) | ΔH ([3]; ITC, 25° C., pH 7.4) | decrease of binding affinity to ecMenE by the mutation ([3]; R195Q versus wild-type, ITC) | ΔΔG [3, 5] | Kd [4] | ΔG ([4]; ITC, 25° C., pH 7.4) | ΔH ([4]; ITC, 25° C., pH 7.4) | decrease of binding affinity to ecMenE by the mutation ([4]; R195K versus wild-type, ITC) | ΔΔG [4, 5] |
| --- | --- | --- | --- | --- | --- | --- | --- | --- | --- | --- | --- | --- | --- |
| O=C(O)CCC(=O)c1ccccc1C(=O)O [OSB, o-succinylbenzoate] | Not Active | 16 ± 1.4 µM | 0.783 ± 0.005 s⁻¹ |  |  |  |  |  |  |  |  |  |  |
| Nc1ncnc2c1ncn2[C@@H]1O[C@H](COS(=O)(=O)NC(=O)CCC(=O)c2ccccc2C(=O)O)[C@@H](O)[C@H]1O [OSB-AMS, o-succinylbenzoate-adenenosinemonosulfamate] |  |  |  | 4.5 ± 0.112 µM | -7.3 kcal/mol | -3.1 ± 0.1 kcal/mol | ~100 fold | 2.7 kcal/mol | 0.394 ± 0.036 µM | -8.8 kcal/mol | -2.5 ± 0.2 kcal/mol | ~10 fold | 1.2 kcal/mol |
